Assay results: PubChem BioAssay AID624296 (National Center for Advancing Translational Sciences (NCATS), 2012)
The campaign covered roughly 350,000 compounds. About 9,900 (2.8%) were called active. Inconclusive means that the source gave no clear call. Such entries were picked first, then a sample of the others. The call rests on the fitted dose curve; in most records, active means well fitted activation curve with a large enough effect; inconclusive means small, poorly fitted or top-dose-only effect; inactive means no such curve, though single readings can be large or run the other way. Potencies of inconclusive entries are left out as doubtful fits.

test: A quantitative high throughput screen for small molecules that induce DNA re-replication in MCF 10a normal breast cells.; further: nearly all actives have a fitted effect of over 50% in size; on activity, positive = re-replication: % of control where 0% means no effect; conditions: MCF 10A DNA re-replication, Hoechst nuclear intensity, 48 h; activity, positive = re-replication: at 46.1 µM (top of the series)
Potency means the concentration at half of the fitted maximal effect; tags describe the fitted curve by direction and shape.

Structure (SMILES) | Potency | activity, positive = re-replication
CN(c1ccc(C(=O)NCc2ccncc2)cc1)S(=O)(=O)c1ccc(Cl)cc1 | inconclusive [activator, full curve, poor fit] | –
Cc1ccc(C(=O)NCN2CCN(c3ccc(F)cc3)CC2)cc1 | inconclusive [activator, partial curve, poor fit] | –
COc1ccc(NC(=S)N2CCCC2)cc1 | – | inactive: -0.356%
CCOC(=O)c1cccc(N2C(=O)C3C4C=CC(CC4)C3C2=O)c1 (configuration not stated) | inconclusive [activator, partial curve, poor fit] | –
CCOC(=O)N1CCN(C(=O)C2CCN(C(=O)c3ccc([N+](=O)[O-])cc3)CC2)CC1 | – | inactive: -5.52%
CC(C)(C)c1nc2ccc(NS(=O)(=O)c3ccc(F)c(F)c3F)cc2[nH]1 | inconclusive [activator, single point] | –
CC1(C)CC(=O)C(C(C2=C(O)CC(C)(C)CC2=O)c2cccs2)C(=O)C1 (configuration not stated) | inconclusive [activator, single point] | –
COc1ccccc1N(C)S(=O)(=O)c1ccc(C(=O)NC2CCCCCC2)cc1 | inconclusive [activator, full curve, poor fit] | –
COc1ccc(-n2c(=S)[nH]c3cc(C(=O)Nc4ccc(OC)c(OC)c4)ccc3c2=O)cc1 | inconclusive [activator, full curve] | –
O=C(O)c1ccc(N/N=C/c2ccc(-c3ccc(Cl)cc3Cl)o2)cc1 | inconclusive [activator, full curve, poor fit] | –
O=C(Nc1cccc(Cl)c1)c1cnccn1 | inconclusive [activator, single point] | –
CCCCOC(=O)C(C#N)c1nc2ccccc2nc1N1CCN(Cc2ccc3c(c2)OCO3)CC1 (configuration not stated) | – | inactive: 1.98%
Cc1nc(Nc2cccc(C(C)O)c2)c2nnn(Cc3ccccc3F)c2n1 (configuration not stated) | inconclusive [activator, partial curve, poor fit] | –
CCOc1ccc(NS(=O)(=O)c2ccc(C(=O)N3CCC3)cc2)cc1 | – | inactive: 1.03%
COc1ccc(CCN2C(=S)N(c3ccc(Cl)cc3)C(=O)C2CC(N)=O)cc1OC (configuration not stated) | inconclusive [activator, single point] | –
CC(C)c1nnc(NC(=O)C2c3ccccc3Oc3ccccc32)s1 | – | inactive: 27.7%
O=c1[nH]c2cc3ccccc3cc2nc1C(F)(F)F | – | inactive: -0.687%
CCC(=O)Nc1cccc(C(=O)/C=C/c2cc(Br)ccc2OC)c1 | active: 2.91 µM | –
CCOC(=O)C1=C(C)C(c2cccc(Oc3ccccc3)c2)NC(=S)N1 (configuration not stated) | inconclusive [activator, single point] | –
CN(C1=C(NC(=O)c2ccc(Cl)cc2)C(=O)c2ccccc2C1=O)c1ccccc1 | inconclusive [activator, single point] | –
CCCNC(=O)C(Cc1cccc(C#N)c1)NC(=O)c1cccc([N+](=O)[O-])c1 (configuration not stated) | inconclusive [activator, full curve, poor fit] | –
O=C(NCc1ccco1)C1CC(c2ccc(F)cc2)=NO1 (configuration not stated) | inconclusive [activator, single point] | –
CCCCCCCCCCCC(CC1OC(=O)C1CCCCCC)OC(=O)C(CC(C)C)NC=O (configuration not stated) | active: 5.31 µM | –
COc1cc(-c2noc(C)c2C#Cc2nccn2C)cc(OC)c1OC | active: 16.4 µM | –

Structure (SMILES) | Potency | activity, positive = re-replication
Cc1ccc(-c2csc(NC(=O)c3cccc([N+](=O)[O-])c3)n2)cc1 | inconclusive [activator, single point] | –
Cc1cc(C)n(CC(O)Cn2c3ccccc3c3ccccc32)c(=O)n1 (configuration not stated) | – | inactive: 19.1%
COc1ccc(NC(=O)c2oc3ccccc3c2C)cn1 | – | inactive: 6.18%
Cc1oc(-c2ccc(Cl)cc2)cc1-c1nn2c(-c3ccoc3C)nnc2s1 | inconclusive [activator, single point] | –
CN1CCN(C2Cc3ccccc3Sc3cc(C(F)(F)F)ccc32)CC1 (configuration not stated) | inconclusive [activator, single point] | –
Cc1cc(C(=O)CSc2nn(-c3ccccc3)c(=S)s2)c(C)n1Cc1ccco1 | inconclusive [activator, partial curve] | –
Cc1onc(-c2ccccc2)c1C(=O)NCc1ccc(Cl)cc1 | – | inactive: 7.33%
c1ccc2[nH]c(-c3ccc4c(c3)OCO4)nc2c1 | – | inactive: 8.71%
CCOc1ccccc1N=Cc1c(O)c2ccccc2oc1=O | – | inactive: 10.1%
C=C(C)[C@@H]1CC=C(CO)CC1 | inconclusive [activator, full curve, poor fit] | –
N#CCSc1ncnc2ccccc12 | inconclusive [activator, single point] | –
CN(C(=O)CSc1nnc(-c2cccc(F)c2)n1N)C1CCS(=O)(=O)C1 (configuration not stated) | – | inactive: 3.63%
O=C(Nc1nc2ccccc2n1CCN1CCCCC1)c1ccco1 | – | inactive: 9.23%
CN1CCN(C2=Cc3ccc(Cl)cc3Sc3ccc(F)cc32)CC1 | inconclusive [activator, partial curve, poor fit] | –
COc1cc(Cl)c(CN2CCCC(CO)(Cc3ccccc3)C2)cc1OC (configuration not stated) | inconclusive [activator, partial curve, poor fit] | –
Cc1ccc(C)c(N2CCN(C(=O)C3CCN(S(=O)(=O)c4cccc5nsnc45)CC3)CC2)c1 | – | inactive: 13.2%
CC(Oc1ccccc1Cl)C(=O)Nc1ccc(S(=O)(=O)N2CCN(C)CC2)cc1 (configuration not stated) | inconclusive [activator, single point] | –
COc1ccc(CCNC(=O)c2cc3c(=O)n4cccc(C)c4nc3n(Cc3ccco3)c2=N)cc1OC | inconclusive [activator, single point] | –
Cc1cc(OCCOc2cccc3cccnc23)cc(C)c1Cl | active: 23.1 µM | –
CC1Cc2ccccc2N1S(=O)(=O)c1cccc(C(=O)NCC(c2ccco2)N2CCCC2)c1 (configuration not stated) | inconclusive [activator, partial curve, poor fit] | –
Cc1ccsc1C(=O)NCCc1nnc2ccccn12 | inconclusive [activator, single point] | –
CCC1=NN(C(=O)c2ccc(Br)cc2)C(O)(c2ccccc2)C1 (configuration not stated) | inconclusive [activator, full curve] | –
CN(C)c1ccc(C(CNS(=O)(=O)c2ccc3ccccc3c2)c2c[nH]c3ccccc23)cc1 (configuration not stated) | inconclusive [activator, single point] | –
O=S(=O)(Cc1ccc(Cl)cc1)Nc1ccc(Cl)cn1 | – | inactive: 0.939%

Structure (SMILES) | Potency | activity, positive = re-replication
CN(C)/C=C/C(=O)c1ccc(-n2cccc2)cc1 | inconclusive [activator, single point] | –
O=C(NCc1ccco1)C1Cc2cc(Cl)ccc2O1 (configuration not stated) | inconclusive [activator, partial curve, poor fit] | –
O=C1/C(=C/c2cccnc2)SC(=S)N1NS(=O)(=O)c1ccccc1 | – | inactive: -14.3%
Cc1noc(NS(=O)(=O)c2ccc(N/C=C\C(=O)c3cccs3)cc2)c1C | inconclusive [activator, single point] | –
CCc1ccc(/C=c2\s/c(=C\C(=O)C(C)(C)C)[nH]c2=O)cc1 | inconclusive [activator, single point] | –
CCC(Sc1nc(N)cc(=O)[nH]1)C(=O)Nc1cc(C)on1 (configuration not stated) | inconclusive [activator, single point] | –
NC(=O)c1cc(S(=O)(=O)NCCc2ccc(S(N)(=O)=O)cc2)cs1 | inconclusive [activator, single point] | –
N/C(=N/OC(=O)c1ccccc1Cl)c1ncc([N+](=O)[O-])s1 | inconclusive [activator, single point] | –
Cc1ccc2c(c1)C(O)(C1COC(C)(C)CC1=O)C(=O)N2C (configuration not stated) | inconclusive [activator, single point] | –
Cn1nnnc1SCCNCc1ccccc1F | inconclusive [activator, single point] | –
Cc1nn2c(-c3cccnc3)ccnc2c1-c1ccccc1 | inconclusive [activator, single point] | –
CCN(CC(=O)Nc1ccc(NC(C)=O)cc1)C(=O)c1cccc(N2C(=O)c3ccccc3C2=O)c1 | – | inactive: -2.63%
CC1(C)CCC(=O)c2ccccc21 | – | inactive: 2.19%
Cn1nc(-c2ccccc2)c(CO)c1Sc1ccccc1 | – | inactive: 2.31%
O=c1[nH]c(=S)ccn1C1OC(CO)C(O)C1O (configuration not stated) | inconclusive [activator, partial curve, poor fit] | –
O=C(NCc1ccccc1)c1cccc(NC(=O)c2ccco2)c1 | inconclusive [activator, partial curve] | –
CCOC(=O)C1(CCc2ccccc2)CCN(C(=O)c2cnc(C)cn2)CC1 | – | inactive: -0.539%
Cc1sc2nc(CN3CCOCC3)nc(Cl)c2c1C | inconclusive [activator, single point] | –
CN=C1S/C(=C\c2ccc(O)c(Br)c2)C(=O)N1C | inconclusive [activator, single point] | –
CCOc1ccc(NC(=O)CC2C(=O)N(c3ccc(OC)cc3)C(=O)N2CCc2cccs2)cc1 (configuration not stated) | – | inactive: 2.79%
CCOc1ccc(S(=O)(=O)N(C)c2ccc(OCC(=O)Nc3ccccc3F)cc2)cc1 | inconclusive [activator, single point] | –
O=[N+]([O-])c1ccc(NC(=S)NCc2ccc(F)cc2)cc1 | active: 16.4 µM | –
COc1ccccc1-c1nnc(NC(=O)c2ccccc2F)o1 | – | inactive: -0.933%
COc1cc(NC(=O)c2ccc(Cl)cc2)c(OC)cc1NC(=O)CN1CCCCC1 | inconclusive [activator, full curve] | –
